PubChem BioAssay AID624417 (National Center for Advancing Translational Sciences (NCATS), 2012)
“And” between values parts separate entries of the source, which are not always exact repeats. Equal values may be shown once. The campaign covered roughly 410,000 compounds. About 6,400 (1.6%) were called active. Inconclusive results, whose numbers are uncertain, are shown with a selection of clear calls. Calls come from the whole dose curve; as a rule, active = well fitted inhibition curve with a large enough effect; inconclusive = small, poorly fitted or top-dose-only effect; inactive = no such curve, though single readings can be large or run the other way. Potencies of inconclusive entries are doubtful fits and often do not repeat.

Target: Glucagon-like peptide 1 receptor (Homo sapiens) (UniProt P43220)
Chain of UniProt P43220 (P43220 whole entry, looked up): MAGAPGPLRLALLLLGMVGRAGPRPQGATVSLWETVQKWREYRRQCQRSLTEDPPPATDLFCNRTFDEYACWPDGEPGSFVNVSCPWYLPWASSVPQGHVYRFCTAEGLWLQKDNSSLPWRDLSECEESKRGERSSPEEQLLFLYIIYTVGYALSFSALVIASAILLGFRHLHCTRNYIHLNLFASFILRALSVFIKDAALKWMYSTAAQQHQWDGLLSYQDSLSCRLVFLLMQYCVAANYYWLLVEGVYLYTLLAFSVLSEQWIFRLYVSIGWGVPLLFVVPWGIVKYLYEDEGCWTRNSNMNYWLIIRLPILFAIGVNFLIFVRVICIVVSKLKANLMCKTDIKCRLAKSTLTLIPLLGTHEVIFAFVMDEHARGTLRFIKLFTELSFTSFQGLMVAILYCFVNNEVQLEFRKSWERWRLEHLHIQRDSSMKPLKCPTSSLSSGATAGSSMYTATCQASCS
Experiment: qHTS of GLP-1 Receptor Inverse Agonists (Inhibition Mode); note: nearly all actives have a fitted effect of over 55% in size
Settings: HEK293 GLP-1R CRE-luciferase, luminescence, 24 h, GLP-1R form is constitutively active; activity change, negative = inhibition: at 38.3 µM (top of the series) unless noted
In short: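 qHTS in 1536-well format: reporter HEK293 cells expressing constitutive GLP-1R activity in DMEM + 10% Nu serum, 24 hr with compounds at 37 deg C, luminescence read after 12 min with detection reagent.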
% is set by controls: 0 for no effect and ±100 for the full control effect; potency is the fitted concentration of half-maximal effect; tags give direction and shape of the fitted curve.

Structure (SMILES) | Potency | activity change, negative = inhibition
COc1cccc(-c2nnc(-c3ccc(C)o3)o2)c1 | inactive | –
CN(C)c1ccc(N=Cc2ccco2)cc1 | inactive | –
O=C(CSc1ccc(-c2ccccc2)nn1)c1ccccc1 | inactive | –
Cc1cccc(C(=O)Nc2ccccc2NC(=O)c2cccc(C)c2)c1 | inconclusive: 10 µM [inhibitor, partial curve, poor fit] | –
COc1ccc2c(Sc3ccccc3)c(C(=O)NCCCN3CCCCC3)[nH]c2c1 | inconclusive: 28.2 µM [inhibitor, single point] | –
CC(=O)Nc1cccc(C(=O)N(Cc2ccccc2)Cc2ccccc2)c1 | inconclusive: 11.2 µM [inhibitor, partial curve, poor fit] | –
CCOc1ccc(Cn2c(=O)sc3ccccc32)cc1OC | inconclusive: 5.62 µM [inhibitor, partial curve] | –
Cc1ccc(S(=O)(=O)Nc2ccccc2C(C(=O)OC(C)(C)C)C(=O)OC(C)(C)C)cc1 | inconclusive: 10 µM [inhibitor, partial curve, poor fit] | –
CC(=O)Nc1ccc(NS(=O)(=O)c2cc(Cl)sc2Cl)cc1 | inconclusive: 28.2 µM [inhibitor, single point] | –
CC(=O)NC(CCc1ccc(Cl)c(Cl)c1)c1cccc(O)c(=O)c1 (stereo not drawn) | inconclusive: 28.2 µM [inhibitor, single point] | –
O=C(NC1CCCC1)C(c1cccs1)N(C(=O)c1ccco1)c1ccc2c(c1)OCCO2 (stereo not drawn) | inconclusive: 31.6 µM [inhibitor, partial curve, poor fit] | –
CCOc1cc(CNC(C)(C)C)ccc1OCC(=O)Nc1cccc(C(F)(F)F)c1 | inconclusive: 10 µM [inhibitor, partial curve, poor fit] | –
CCc1nnc(NS(=O)(=O)c2ccc(NC(=S)NC(=O)/C=C/c3ccc(OC)cc3)cc2)s1 | inactive | –
CCCCCCCN1C2=NCCCN2c2ccccc21 | active: 10 µM | –
COCCCn1c(=O)cc(C)[nH]c1=S | inactive | –
CN1CCN(C(=O)CCCN2C(=O)/C(=C/c3ccccc3)SC2=S)CC1 | inconclusive: 22.4 µM [inhibitor, single point] | –
O=C(NCCCN1CCOCC1)c1cc(-c2cccs2)on1 | inactive | –
Cc1cc(C)c(NC(=O)Cn2ccn(-c3cccc(Cl)c3)c(=O)c2=O)c(C)c1 | inactive | –
COc1ccccc1NC(=O)OCC#CCOC(=O)Nc1ccccc1OC | inconclusive: 10 µM [inhibitor, partial curve, poor fit] | –
O=C(Nc1nnc(S(=O)(=O)N2CCCc3ccccc32)s1)c1cccc(F)c1 | inconclusive: 11.2 µM [inhibitor, partial curve, poor fit] | –
O=C1N(c2ccccc2)c2ccccc2C1(O)C(F)(F)F (stereo not drawn) | – | inconclusive: -49.1% [inhibitor]

Structure (SMILES) | Potency | activity change, negative = inhibition
COc1ccc(N(C(=O)c2cccc(C)c2)S(=O)(=O)c2ccc(C)cc2)cc1 | inconclusive: 11.2 µM [inhibitor, partial curve, poor fit] | –
CC(=O)N/C(=C\c1ccccc1)C(=O)Nc1ccc(O)cc1 | inactive | –
CCOc1ccccc1N(CC(=O)N1CCC(C)CC1)S(=O)(=O)c1ccc(C)cc1 | inconclusive: 28.2 µM [inhibitor, single point] | –
Cc1ccc2c(c1)N(C(=O)C1CCN(S(=O)(=O)c3c(C)noc3/C=C/c3ccccc3F)CC1)CCO2 | inactive | –
COc1cc(SC)ccc1C(=O)Nc1ccccc1 | inconclusive: 28.2 µM [inhibitor, single point] | –
O=C(NCc1cc(Cl)cc(Cl)c1)c1csc([C@@H]2O[C@H](CO)[C@H](O)[C@H](O)[C@H]2O)n1 | inactive | –
O=C1/C(=C\c2ccccc2)CN(C(=O)CCN2CCCCC2)C/C1=C/c1ccccc1 | inconclusive: 28.2 µM [inhibitor, single point] | –
COC(=O)CN1C(c2ccc(OC)cc2)=Nc2ccc(Cl)cc2C1c1ccccc1 (stereo not drawn) | inconclusive: 12.6 µM [inhibitor, single point] | –
CCOc1ccccc1N1CC(C(=O)Nc2ccccc2CC)CC1=O (stereo not drawn) | inconclusive: 6.31 µM [inhibitor, partial curve, poor fit] | –
COc1ccccc1CNC(=O)Cc1csc2nc(-c3ccccc3)cn12 | inactive | –
C=CCn1nc(-c2ccccc2)c(N2CCCCC2)cc1=O | inconclusive: 7.08 µM [inhibitor, partial curve, poor fit] | –
COc1ccc(S(=O)(=O)NCC2CCCN(Cc3ccccc3Cl)C2)cc1 (stereo not drawn) | inconclusive: 8.91 µM [inhibitor, partial curve, poor fit] | –
Cc1cc(C(=O)NC2CCCN(Cc3ccc(Cl)cc3)C2)c(C)o1 (stereo not drawn) | inconclusive: 12.6 µM [inhibitor, single point] | –
CC(C)(C)NC(=O)CN(C(=O)c1ccc(Cl)nc1)c1cccc2ccccc12 | inconclusive: 4.47 µM [inhibitor, single point] | –
CCNC(=S)NNC(=O)c1cc(-c2cccc(C)c2)nc2ccccc12 | inactive | –
COc1cc2[nH]c(=O)n(Cc3ccc(C(=O)N4CCN(c5cc(Cl)ccc5C)CC4)cc3)c(=O)c2cc1OC | inactive | –
COc1ccc(N(Cc2cccs2)C(=O)c2ccc(C(C)(C)C)cc2)cc1 | inconclusive: 10 µM [inhibitor, partial curve, poor fit] | –
COc1cc(C2CC(=O)N(c3ccc(C)cc3)C(=O)C2)cc(OC)c1OC | inconclusive: 8.91 µM [inhibitor, partial curve, poor fit] | –
O=C(c1ccc(Cl)cc1)N1CCN(c2ccnc3cc(Cl)ccc23)CC1 | inconclusive: 11.2 µM [inhibitor, partial curve, poor fit] | –
CN1CCN(C(=O)c2ccc(S(=O)(=O)N(C)c3ccccc3)cc2)CC1 | inactive | –
Cc1nn(C)c2c1c(C(F)(F)F)cc(=O)n2CC(=O)N1CCCCC1C (stereo not drawn) | inconclusive: 28.2 µM [inhibitor, single point] | –

Structure (SMILES) | Potency | activity change, negative = inhibition
Cc1ccc(Cl)cc1N1CCN(CC(=O)NC2CCCc3ccccc32)CC1 (stereo not drawn) | inconclusive: 20 µM [inhibitor, single point] | –
COc1ccccc1N/N=C1\COC(C)(C)CC1=O | inconclusive: 28.2 µM [inhibitor, single point] | –
COCc1c(C(=O)OCC(=O)c2c(N)n(CC(C)C)c(=O)n(C)c2=O)oc2ccccc12 | inconclusive: 7.08 µM [inhibitor, partial curve, poor fit] | –
CCCCCCCCCOC1OC(CO)C(O)C(O)C1NC(C)=O (stereo not drawn) | inconclusive: 7.08 µM [inhibitor, partial curve, poor fit] | –
COc1ccc(NC(=O)C[C@H]2C(=O)N(c3ccc(Br)cc3)C[C@@H]2c2ccc(OC)cc2)cc1 | inconclusive: 11.2 µM [inhibitor, partial curve, poor fit] | –
Cc1nc(-c2ccc(S(=O)(=O)N3CCN(c4cccc(C)c4C)CC3)cc2)co1 | inconclusive: 15.8 µM [inhibitor, single point] | –
CN1CCN(C(=O)c2cc3sc4ccccc4c3s2)CC1 | inconclusive: 14.1 µM [inhibitor, single point] | –
O=C(Nc1ccc2c(c1)OCO2)C1Cc2c(-c3ccccc3Oc3ccccc3)ccnc2O1 (stereo not drawn) | inconclusive: 8.91 µM [inhibitor, partial curve, poor fit] | –
O=C(c1cccc(Br)c1)c1coc2ccc(O)cc12 | inconclusive: 14.1 µM [inhibitor, single point] | –
S=c1[nH]cc(-c2ccc(Cl)cc2)n1-c1ccccc1 | inconclusive: 10 µM [inhibitor, single point] | –
COc1ccc(C)cc1NC(=O)CSc1nnc(COc2ccccc2)n1Cc1ccco1 | inconclusive: 11.2 µM [inhibitor, partial curve, poor fit] | –
Cc1cn2c(=O)cc(COc3ccc(NC(=O)c4ccccc4C)cc3)nc2s1 | inactive | –
CCCCNC(=O)C1CC(c2c(Cl)cccc2Cl)=NO1 (stereo not drawn) | inconclusive: 5.62 µM [inhibitor, partial curve, poor fit] | –
Cc1oc(CC(C)C)cc1C(=O)Nc1cccc2ccccc12 | inconclusive: 15.8 µM [inhibitor, partial curve, poor fit] | –
CC1CCC(C(C)C)C(OC(=O)Cn2c(-c3ccc(Br)cc3)[n+](C)c3ccccc32)C1 (stereo not drawn) | inconclusive: 8.91 µM [inhibitor, partial curve, poor fit] and inconclusive: 28.2 µM [inhibitor, single point] | –
CCOc1cc(N2CCOCC2)c(OCC)cc1NC(=O)CN1CCC(Cc2ccccc2)CC1 | inconclusive: 5.62 µM [inhibitor, partial curve, poor fit] | –
CN(CC(=O)Nc1ccccc1Br)C(=O)c1cccc(S(=O)(=O)N2CCc3ccccc32)c1 | inconclusive: 10 µM [inhibitor, partial curve, poor fit] | –
Cc1oc2ccc(O)c(CN3CCCCC3)c2c1C(=O)Nc1cccc(C(F)(F)F)c1 | inconclusive: 28.2 µM [inhibitor, single point] | –
CC(=O)Nc1cccc(C(=O)OCCCOc2ccc(F)cc2)c1 | inconclusive: 28.2 µM [inhibitor, single point] | –
Cc1ccc(-n2ncc(C(=O)Nc3ccc4c(c3)OCO4)c2C2CCN(C(=O)OC(C)(C)C)CC2)c(C)c1 | inconclusive: 14.1 µM [inhibitor, single point] | –
Cc1cc(C)c(NC(=O)CN2C(=O)NC3(CCCc4ccccc43)C2=O)c(Cl)c1 (stereo not drawn) | inconclusive: 28.2 µM [inhibitor, single point] | –
